# From PubChem BioAssay AID1347073 (National Center for Advancing Translational Sciences (NCATS), 2019)
# Screen size: about 45,000 compounds; about 200 (0.44%) were called active. About 7% were inconclusive and are not listed. Calls come from the whole dose curve; as a rule, active = well fitted activation curve with a large enough effect; inconclusive = small, poorly fitted or top-dose-only effect; inactive = no such curve, though single readings can be large or run the other way. The list shows a part of the results. Peptide text beside a SMILES is read from it. * marks the point of attachment. Boc = CC(C)(C)OC(=O)*; Bn = c1ccc(C*)cc1
# Test: qHTS of TDP-43 Inhibitors: NCGC Sytravon Library Screen; note: 0% is about no effect; nearly all actives have a fitted effect of over 55% in size
# Details: yeast TDP-43 toxicity rescue, BacTiter-Glo growth, 24 h; series mostly up to 46.1 µM; growth rescue (activation): at the top concentration
# Outline: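 TDP-43-expressing yeast, pregrown in raffinose, seeded at OD600 0.02 in galactose medium with compound for 24 hr at 30 deg C. Growth read by BacTiter-Glo luminescence, so rescue of toxicity appears as activation.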
row,SMILES,growth rescue (activation)
1,COc1ccc(OCc2cc(C(=O)N(C)Cc3cnccn3)no2)c(Cl)c1,inactive: 15.2%
2,COc1ccccc1S(=O)(=O)N1CCn2cccc2C1C (stereo unspecified),inactive: 24%
3,COc1ccc(C(=O)N(CCc2ccccc2)Cc2ccccc2)c(OC)n1,inactive: 23.1%
4,COc1cccc2cc(C(C)N(CCCN3CCOCC3)C(=S)Nc3cccc(C)c3C)oc12 (stereo unspecified),inactive: -8.43%
5,CN(CCO)c1cc(N2CCC3(CC2)OCCO3)c2nonc2c1[N+](=O)[O-],inactive: 1.94%
6,CC(C)c1ccc(C(=O)N2CCCCC2c2cc(C(=O)Nc3ccncc3)no2)cc1 (stereo unspecified),inactive: 17.4%
7,Cc1ccc(-c2cc(-c3n[nH]c(=S)n3C)c3ccccc3n2)cc1,inactive: 17.2%
8,Cc1ccc(-n2c(=O)c3sccc3n(CC(=O)NCC3CCCO3)c2=O)cc1F (stereo unspecified),inactive: 1.9%
9,N#Cc1ccc(S(=O)(=O)N2CCCCC2c2cc(C(=O)NCc3ccccc3)no2)cc1 (stereo unspecified),inactive: 14.5%
10,O=C(COC(=O)c1ccccc1Nc1ccc(SC(F)F)cc1)NC1CC1,inactive: 24%
11,CC(=O)c1ccc(N2CCN(C(=S)Nc3ccccc3F)CC2)cc1,inactive: 17.8%
12,O=C1C2CCCN2C(=S)N1c1ccc(Cl)cc1 (stereo unspecified),inactive: -10.8%
13,COC(=O)c1cccc(NC(=O)Cc2nc(-c3ccccc3)sc2-c2ccc(C)cc2)c1,inactive: -11.5%
14,Cc1ccc(S(=O)(=O)N2CCN(C(=O)N3CCCC3)CC2)cc1,inactive: -14.8%
15,COc1ccc(S(=O)(=O)N2CCC(NC(=O)N3CCOCC3)CC2)cc1,inactive: -12.7%
16,Cc1cc(C)nc(NS(=O)(=O)c2ccc(N/C=C/C(=O)c3ccc(Cl)c(Cl)c3)cc2)n1,inactive: 10.1%
17,CC(=O)C(C)Sc1nnc(-c2ccccc2F)n1C1CC1 (stereo unspecified),inactive: 14.3%
18,COc1ccc(NS(=O)(=O)c2ccc(O)c(C(=O)OCC(=O)Nc3ccc4c(c3)OCCO4)c2)cc1,inactive: -23.9%
19,CC1Oc2ccccc2N(CC(=O)NC2CC2)C1=O (stereo unspecified),inactive: -7.5%
20,CCOc1ncccc1C(=O)OCC(=O)Nc1cccc(S(N)(=O)=O)c1,inactive: 0.852%
21,O=C(OCCOc1ccccc1F)c1cc(S(=O)(=O)N2CCOCC2)ccc1F,inactive: -1.29%
22,COc1cc(/C=C2/C(=N)N3N=C(C)SC3=NC2=O)ccc1OS(=O)(=O)c1ccc(C)cc1,inactive: -4.8%

row,SMILES,growth rescue (activation)
1,O=C(NC(c1ccc(Cl)cc1)c1cnccn1)C1CCN(Cc2ccc(Cl)cc2)CC1 (stereo unspecified),inactive: 12.4%
2,O=C(CCCN1CCc2[nH]c3ccc(F)cc3c2C1)c1ccc(F)cc1,inactive: 7.2%
3,Nc1cccc(C2=Nc3cccc4cccc(c34)N2)c1,inactive: -6.61%
4,CCOC(=O)CSc1ncnc2c1cnn2-c1ccc(Cl)cc1,inactive: -17.7%
5,CCN(CC)S(=O)(=O)c1cc(NC(=O)CSc2nnc(-c3cccs3)o2)ccc1C,inactive: -12.4%
6,CCn1c(SCC(=O)N/N=C/c2cc(OC)c(OC)c(OC)c2)nc2ccccc21,inactive: 15.8%
7,N#Cc1ccccc1COC(=O)c1cc(=O)c2ccccc2o1,inactive: -1.86%
8,COC(=O)C(Cc1ccccc1)NC(=O)C12CC3CC(CC(C3)C1)C2 (stereo unspecified),inactive: -2.58%
9,CC(=O)Nc1ccc(N2CCOCC2)c([N+](=O)[O-])c1,inactive: -6.07%
10,COc1cccc(CN2CC(C(=O)NCCCCc3ccccn3)CCC2=O)c1 (stereo unspecified),inactive: 15.9%
11,CSc1ccc(S(=O)(=O)N2CCC(C(=O)Nc3ccc(NC(C)=O)cc3)CC2)cc1,inactive: 20.6%
12,Oc1ccccc1/C=N/Nc1ccccc1,inactive: 8.72%
13,CCOC(=O)C1(Cc2ccccc2)CCN(Cc2ccc(C3CCCCO3)s2)CC1 (stereo unspecified),inactive: -28.6%
14,S=C(NCCN1CCOCC1)Nc1ccc(Cl)cc1,inactive: 10.1%
15,CC(=O)N1CCC(N(CCN2CCOCC2)C(=S)Nc2ccc(C)c(C)c2)CC1,inactive: -3.59%
16,CN1CCN(NC(=O)c2ccc(Br)c(S(=O)(=O)N3CCOCC3)c2)CC1,inactive: 6.96%
17,CSc1nc(C)c(CCO)c(=O)[nH]1,inactive: -5.11%
18,CCC(C)(C)NC(=O)c1cc(S(=O)(=O)N2CCCCC2)ccc1N1CCOCC1,inactive: -4.4%
19,CC(C)C(=O)NNC(=O)CSc1nc(C2CCCCC2)nc2ccccc12,inactive: 4.33%
20,O=C(NC1CCN(C(=O)Nc2cccc(Cl)c2)CC1)c1ccco1,inactive: 12.7%
21,CNC(=O)CSc1nnc(-c2cccnc2)n1-c1ccc(C)cc1,inactive: -13.7%
22,COc1ccc(OC)c(CN2CCC(C(=O)N3CCN(c4ccccc4F)CC3)CC2)c1,inactive: -11.8%

row,SMILES,growth rescue (activation)
1,COCCCNCC(=O)Nc1ccc(OC(F)(F)F)cc1,inactive: 22.1%
2,CCN(CC)CCn1c(=N)n(CC(O)COc2ccccc2)c2ccccc21 (stereo unspecified),inactive: 11.8%
3,CON1C(=O)C(=O)N(OC)C2CCCCCC21 (stereo unspecified),inactive: -10.9%
4,O=C(NCCC1=CCCCC1)c1ccc([N+](=O)[O-])cc1,inactive: 4.82%
5,O=c1oc2ccccc2c(O)c1Cc1cc(Cl)c2cccnc2c1O,inactive: -1.04%
6,CN(C)S(=O)(=O)c1cccc(NC(=O)CN2C(=O)NC3(CCc4ccccc4C3)C2=O)c1 (stereo unspecified),inactive: -1.53%
7,CC1CCCC/C1=N\NC(=S)Nc1cccnc1 (stereo unspecified),inactive: 0.902%
8,C(=N\Nc1nc(N2CCCC2)nc(N2CCCC2)n1)/c1cccnc1,inactive: 15.7%
9,CN(C(=O)c1ccc(OC2CCN(CCc3ccccc3)CC2)cc1)C1CCCCC1,inactive: 0.0716%
10,O=C(COC(=O)C1CCN(S(=O)(=O)c2cccs2)CC1)Nc1ccc(F)cc1Cl,inactive: 44.3%
11,Cc1cc(C(=O)N/N=C/c2c3ccccc3cc3ccccc23)n[nH]1,inactive: -19.7%
12,Cc1ccc(/C=C/C(=O)Nc2cc(=O)n(C)c(=O)n2C)o1,inactive: -6.69%
13,Cc1cc(C)c(NC(=O)CSCc2c(C)noc2C)c(Cl)c1,inactive: 4.56%
14,COc1cc(CC(=O)OCc2ccccc2F)cc(OC)c1OC,inactive: 22.6%
15,CCC(O)(CC)C(=O)NN(C(=O)Nc1csc2c1CCCC2)c1ccccc1,inactive: 9.09%
16,O=C1/C(=C\c2ccc(O)cc2)SC(=S)N1Cc1ccccc1,inactive: -94.1%
17,COc1cccc(NC(=O)CN2CCN(CC(=O)Nc3ccc(F)cc3)CC2)c1,inactive: 8.35%
18,O=[N+]([O-])c1ccc(N2CCSCC2)cc1,inactive: 16.2%
19,Cc1nnc(SCC(=O)NC(=O)NCCC(C)C)s1,inactive: -5.72%
20,O=C(Nc1cccc2ccccc12)N(CCO)C1CCS(=O)(=O)C1 (stereo unspecified),inactive: -27.2%
21,O=[N+]([O-])c1cccc(-c2n[nH]c(=S)n2Cc2ccccc2)c1,inactive: 11.3%
22,Cc1ccnc(NC(=O)c2cnc(Cl)c(Cl)c2)c1,inactive: 21.7%

row,SMILES,growth rescue (activation)
1,CC1CCN(C(=O)CS(=O)(=O)Cc2ccccc2)CC1,inactive: -4.71%
2,Cc1ccc(N(CC(=O)NC2CCCC2)C(=O)c2nsc(Cl)c2Cl)cc1,inactive: 9.62%
3,CCC(C)(C)NC(=O)C(c1ccc(F)cc1)N(CCOC)C(=O)CCC(=O)Nc1nccs1 (stereo unspecified),inactive: 5.79%
4,CCc1ccc(NC(=O)CSc2nnnn2-c2cccnc2)cc1,inactive: 13.6%
5,COC(=O)c1cc(CNC(=O)C(C)NS(=O)(=O)c2ccc(C)c(C)c2)ccc1OC (stereo unspecified),inactive: 2.17%
6,CN(C)CC(=O)Nc1ccc(Oc2ccc(Cl)cc2)cc1,inactive: -2.26%
7,CN(C)c1ccc(/C=N/n2cnn(Cc3ccccc3Cl)c2=S)cc1,inactive: 5.71%
8,Cc1ccc(C(c2cc(Cl)c3cccnc3c2O)N2CCN(C)CC2)cc1 (stereo unspecified),inactive: -53.5%
9,CCOC(=O)c1c(NC(=O)COc2ccc(OC)cc2)sc(C(=O)N(CC)CC)c1C,inactive: 17.2%
10,CC(=O)Nc1ccc(S(=O)(=O)N2CCC(C(=O)c3ccc(F)cc3)CC2)cc1,inactive: 18.7%
11,O=C(Nc1ccccc1C(F)(F)F)c1ncn[nH]1,inactive: 4.21%
12,O=C(Nc1nc(-c2cc(F)ccc2F)cs1)C1=NN(c2ccccc2)C(=O)CC1,inactive: 3.02%
13,O=[N+]([O-])c1cccc(/C=N/n2c(C3CCCCC3)n[nH]c2=S)c1,inactive: 11.1%
14,Cc1c(NC(=O)CSc2ccccc2Cl)c(=O)n(-c2ccccc2)n1C,inactive: 3.5%
15,COCC(=O)Nc1ccc([N+](=O)[O-])cc1C,inactive: 21.6%
16,Cc1ccc(C(c2c(C)n(C)n(-c3ccccc3)c2=O)c2c(C)n(C)n(-c3ccccc3)c2=O)s1,inactive: 2.89%
17,COCCOC(=O)C1=C(C)NC(=S)NC1/C=C/c1ccccc1 (stereo unspecified),inactive: 4.57%
18,FC(F)(F)c1ccccc1-n1c(CN2CCCCC2)n[nH]c1=S,inactive: -9.89%
19,CN(C)c1ccc(NC(=S)c2ccccn2)cc1,inactive: 17.5%
20,COc1ccc(NC(=O)CSc2nc3sc(C)cc3c(=O)n2C)cc1,inactive: 2.21%
21,O=C(Nc1ncc(Cc2cccc(Cl)c2)s1)c1ccc([N+](=O)[O-])cc1,inactive: -15.9%
22,CCN(CC)c1nc(-c2ccc(Cl)cc2)cc(C(F)(F)F)c1C#N,inactive: -24%

row,SMILES,growth rescue (activation)
1,COc1ccc(CC(=O)Nc2cc3oc4ccccc4c3cc2OC)cc1,inactive: -3.02%
2,CN1C(=O)NC(c2ccccc2Cl)C2=C1CC(C)(C)CC2=O (stereo unspecified),inactive: -5.2%
3,CCOc1cc(/C=N/NC(=O)C(C)Sc2ccccn2)ccc1O (stereo unspecified),inactive: 21.4%
4,COc1ccc(CNC(=O)c2cc(-c3cc(C)ccc3O)n[nH]2)cc1,inactive: 8.7%
5,C=CCOCCN(C)C1=NS(=O)(=O)c2cc([N+](=O)[O-])ccc21,inactive: 29.6%
6,Cc1cc(NS(=O)(=O)c2ccc(NC(=O)COc3ccc(Cl)c(C)c3)cc2)no1,inactive: 14.9%
7,Cc1nnc(SCC(=O)NNC(=O)c2ccccc2)n1-c1ccccc1,inactive: 11.1%
8,Cc1ccc(-c2noc(C3CCCN(C(=O)c4cccc(Cl)c4)C3)n2)o1 (stereo unspecified),inactive: 12.8%
9,CCOC(=O)c1c(C)oc2cc(Cl)c(O)c(CN(C)C)c12,inactive: 24.9%
10,Cc1noc(C)c1C(=O)OCC(=O)NCCc1ccc(S(N)(=O)=O)cc1,inactive: 11.9%
11,CCN(Cc1nc2ccccc2c(=O)[nH]1)C(=O)c1cccc(NC(=O)c2cccs2)c1,inactive: -1.55%
12,CCOC(=O)c1ccc(COC(=O)CNS(=O)(=O)c2ccccc2)cc1,inactive: 3.69%
13,CC(C)CC(NC(=O)C(CC(C)C)NC(=O)C(Cc1ccc(OCc2ccccc2)cc1)NC(=O)OC(C)(C)C)C(N)=O (stereo not drawn) (Boc-Tyr(Bn)-Leu-Leu-NH2; configuration not given here),inactive: -19.7%
14,O=C(NNC(=O)c1cccs1)c1cccnc1,inactive: -1.62%
15,CCN(CC)C(=O)c1cccc(-c2csc(C(C)(NC(C)=O)c3ccccc3)n2)c1 (stereo unspecified),inactive: 3.35%
16,CC1=NN(C(=O)c2ccccc2Cl)C(O)(c2cccnc2)C1 (stereo unspecified),inactive: -10.3%
17,COc1ccc(C(=O)OCC(=O)c2ccc3c(c2)NC(=O)CO3)cc1[N+](=O)[O-],inactive: -6.6%
18,CC(=O)Oc1ccccc1C(=O)Nc1ccccc1C(=O)N1CCCCC1,inactive: -2.14%
